{"source": "paper PMC4336329", "about": "(PLoS ONE, 2015)", "note": "About 14,000 (4.5%) of roughly 310,000 compounds showed an effect of 50% or more. Effects have a minus sign here. The list shows a part of the results.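 Note: peak tail current of the secondary pulse compared with the same well before compound.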"}
{"target": "human ether-à-go-go-related gene (hERG) potassium channel (human, UniProt Q12809)", "sequence (Q12809 whole entry, looked up)": "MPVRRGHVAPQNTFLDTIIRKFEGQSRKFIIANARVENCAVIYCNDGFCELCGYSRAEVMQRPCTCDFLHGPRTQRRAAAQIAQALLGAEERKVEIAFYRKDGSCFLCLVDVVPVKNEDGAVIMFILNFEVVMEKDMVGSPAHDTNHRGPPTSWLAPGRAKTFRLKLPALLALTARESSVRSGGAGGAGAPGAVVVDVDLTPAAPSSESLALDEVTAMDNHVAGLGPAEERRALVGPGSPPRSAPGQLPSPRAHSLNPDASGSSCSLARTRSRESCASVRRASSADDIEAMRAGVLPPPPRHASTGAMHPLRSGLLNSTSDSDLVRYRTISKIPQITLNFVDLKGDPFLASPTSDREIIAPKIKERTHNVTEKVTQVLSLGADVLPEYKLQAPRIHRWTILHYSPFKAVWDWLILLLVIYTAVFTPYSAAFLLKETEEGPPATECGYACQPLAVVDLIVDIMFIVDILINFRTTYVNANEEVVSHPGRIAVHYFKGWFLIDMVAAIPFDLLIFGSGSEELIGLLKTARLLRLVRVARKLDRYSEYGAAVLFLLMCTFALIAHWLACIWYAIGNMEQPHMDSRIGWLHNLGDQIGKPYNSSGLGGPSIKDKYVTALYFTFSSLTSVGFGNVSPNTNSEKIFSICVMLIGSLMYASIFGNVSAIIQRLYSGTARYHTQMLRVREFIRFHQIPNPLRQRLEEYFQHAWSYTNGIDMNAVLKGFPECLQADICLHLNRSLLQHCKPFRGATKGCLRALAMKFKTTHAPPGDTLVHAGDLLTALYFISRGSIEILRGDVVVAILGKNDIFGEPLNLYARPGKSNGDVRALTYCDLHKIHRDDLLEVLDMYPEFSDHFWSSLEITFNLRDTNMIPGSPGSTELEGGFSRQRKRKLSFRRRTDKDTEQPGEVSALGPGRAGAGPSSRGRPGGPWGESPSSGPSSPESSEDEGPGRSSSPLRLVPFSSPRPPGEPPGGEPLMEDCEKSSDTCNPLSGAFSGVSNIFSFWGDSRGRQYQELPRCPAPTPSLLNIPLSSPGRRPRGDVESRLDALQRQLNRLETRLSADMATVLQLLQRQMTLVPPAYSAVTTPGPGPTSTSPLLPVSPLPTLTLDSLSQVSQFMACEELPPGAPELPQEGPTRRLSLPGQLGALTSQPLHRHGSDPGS", "test": "primary screen, population patch clamp on CHO cells stably expressing hERG", "units": {"hERG current change (%, negative = inhibition) at 10uM": "%"}}
{"smiles": "COc1ccc(/C=C\\C(=O)NCC(=O)N/N=C/c2cccc(OC)c2O)cc1", "hERG current change (%, negative = inhibition) at 10uM": -2.13}
{"smiles": "CC(C)c1cc(CN2CCN(CCC#N)CC2)cc(C(C)C)c1O", "hERG current change (%, negative = inhibition) at 10uM": -42.7}
{"smiles": "Cc1ccc(S(=O)(=O)n2cccc2CO)cc1", "hERG current change (%, negative = inhibition) at 10uM": 6.71}
{"smiles": "CC(Sc1nnc(C2CC2)n1C)C(=O)Nc1ccc2c(c1)CCC2", "note": "(stereo not drawn)", "hERG current change (%, negative = inhibition) at 10uM": -17.8}
{"smiles": "C=CCc1cccc(/C=N/NC(=O)c2ccccc2Br)c1O", "hERG current change (%, negative = inhibition) at 10uM": -50.2}
{"smiles": "CC(=O)Nc1c(O)nc(SCC(=O)Nc2sc3c(c2C#N)CCCCCC3)[nH]c1=O", "hERG current change (%, negative = inhibition) at 10uM": -1.23}
{"smiles": "COCCN1Cc2cccc(C(=O)NCc3cccnc3)c2C1=O", "hERG current change (%, negative = inhibition) at 10uM": 3.96}
{"smiles": "CCCCN(C(=O)COC(=O)COc1c(C)cc(C)cc1C)c1c(N)n(CCC)c(=O)[nH]c1=O", "hERG current change (%, negative = inhibition) at 10uM": 4.79}
{"smiles": "COc1ccc([N+](=O)[O-])cc1NC(=O)C(C)OC(=O)C1CCC1", "note": "(stereo not drawn)", "hERG current change (%, negative = inhibition) at 10uM": -3.93}
{"smiles": "CN(C)CCCN(C(=O)c1ccc(S(=O)(=O)N(C)C)cc1)c1nc2cc3c(cc2s1)OCO3.Cl", "hERG current change (%, negative = inhibition) at 10uM": 15.5}
{"smiles": "O=C1c2cccc3cccc(c23)C(=O)N1/N=C/c1ccc(O)cc1O", "hERG current change (%, negative = inhibition) at 10uM": 7.76}
{"smiles": "Cc1ccc(N2CC(C(=O)OCC(=O)c3ccc(C)c([N+](=O)[O-])c3)CC2=O)cc1", "note": "(stereo not drawn)", "hERG current change (%, negative = inhibition) at 10uM": -8.62}
{"smiles": "O=c1c2nnn(Cc3ccccc3)c2ncn1-c1ccccc1", "hERG current change (%, negative = inhibition) at 10uM": 9.1}
{"smiles": "Cc1cccc(OCC(=O)O/N=C(\\N)Cc2ccc([N+](=O)[O-])cc2)c1", "hERG current change (%, negative = inhibition) at 10uM": -32.5}
{"smiles": "CCN1CCc2nc3ccccc3c(C(=O)Nc3ccc(C#N)cc3)c2C1", "hERG current change (%, negative = inhibition) at 10uM": -71}
{"smiles": "O=C(O)C(=O)O.O=C(c1cccc(Cl)c1)N1CCN(C2CCCCCC2)CC1", "hERG current change (%, negative = inhibition) at 10uM": -45.9}
{"smiles": "Cc1nc2ccc(CN(C)c3ccc(C(=O)N[C@@H](CCC(=O)O)C(=O)O)s3)cc2c(=O)[nH]1", "hERG current change (%, negative = inhibition) at 10uM": 8.41}
{"smiles": "CCc1cc(C(=O)N/N=C/c2ccc(OC)cc2)c2ccccc2n1", "hERG current change (%, negative = inhibition) at 10uM": -4.27}
{"smiles": "Cc1ccc(CNC(=O)c2ccc3c(c2)S(=O)(=O)c2ccccc2C3=O)cc1", "hERG current change (%, negative = inhibition) at 10uM": -1.39}
{"smiles": "CCc1nc(-c2ccc(-c3ccc(OC)cc3)nc2OC)no1", "hERG current change (%, negative = inhibition) at 10uM": 12.4}
{"smiles": "CCCCn1c(SCC(=O)N2CCC(C(=O)OCC)CC2)nc2cc(S(N)(=O)=O)ccc21", "hERG current change (%, negative = inhibition) at 10uM": -70.7}
{"smiles": "NS(=O)(=O)c1ccc(CCNc2ccnc3cc(Cl)ccc23)cc1", "hERG current change (%, negative = inhibition) at 10uM": -24.9}
{"smiles": "Cc1ccc(-n2c(-c3ccccc3)c[n+]3c2CCC3)cc1.[Br-]", "hERG current change (%, negative = inhibition) at 10uM": -50.7}
{"smiles": "COC(=O)c1ccc(N2CCN(S(=O)(=O)c3ccccc3)CC2)c([N+](=O)[O-])c1", "hERG current change (%, negative = inhibition) at 10uM": -14.1}
{"smiles": "CCn1ncc(C2=NOC(C(=O)N3CCC(C(N)=O)CC3)C2)c1C", "note": "(stereo not drawn)", "hERG current change (%, negative = inhibition) at 10uM": -5.42}
{"smiles": "COc1ccc(-c2csc(-c3cccs3)n2)c(OC)c1", "hERG current change (%, negative = inhibition) at 10uM": 15.8}
{"smiles": "CCOC(=O)c1cc2c(=O)n3ccccc3nc2n(CCCOC)c1=NC(C)=O", "hERG current change (%, negative = inhibition) at 10uM": -27.5}
{"smiles": "CCOC(=O)c1c[nH]c(=S)n1C", "hERG current change (%, negative = inhibition) at 10uM": 21.8}
{"smiles": "CC(=O)Nc1ccc(S(=O)(=O)N(CC(=O)O)Cc2ccccc2)cc1", "hERG current change (%, negative = inhibition) at 10uM": -12.6}
{"smiles": "COc1ccc(C)c2sc(N(CCCN(C)C)C(=O)c3ccc4c(c3)OCCO4)nc12.Cl", "hERG current change (%, negative = inhibition) at 10uM": -75.6}
{"smiles": "CS(=O)(=O)N1CCC(C(=O)Nc2ccc3c(c2)OCCO3)CC1", "hERG current change (%, negative = inhibition) at 10uM": -0.89}
{"smiles": "CN(C)c1ccc(/C=N/n2cnn(Cc3ccccc3Cl)c2=S)cc1", "hERG current change (%, negative = inhibition) at 10uM": 24.2}
{"smiles": "COC(=O)C1CCN(C(=O)C2CCC(=O)N(CCc3cccc(F)c3)C2)CC1", "note": "(stereo not drawn)", "hERG current change (%, negative = inhibition) at 10uM": -1.44}
{"smiles": "Cc1cc(O)c(NC(=O)c2cccc([N+](=O)[O-])c2)cc1C", "hERG current change (%, negative = inhibition) at 10uM": 7.25}
{"smiles": "CCOP(=O)(OCC)C1(O)C(=O)Nc2ccc(Br)cc21", "note": "(stereo not drawn)", "hERG current change (%, negative = inhibition) at 10uM": -4.13}
{"smiles": "CC1CCN(c2c(NCC3CCC(C(=O)N4CCCC(C)C4)CC3)c(=O)c2=O)CC1", "note": "(stereo not drawn)", "hERG current change (%, negative = inhibition) at 10uM": 2.75}
{"smiles": "CC(NC(=O)COC(=O)/C=C/c1ccc(Cl)cc1)c1ccccc1", "note": "(stereo not drawn)", "hERG current change (%, negative = inhibition) at 10uM": 18.7}
{"smiles": "CCc1cccc2c(C#N)cn(CC(=O)NCc3ccco3)c12", "hERG current change (%, negative = inhibition) at 10uM": 13.5}
{"smiles": "CCOC(=O)c1c(NC(=O)CN2C(=O)C(=O)N(CC(C)C)C2=O)sc(C)c1CC", "hERG current change (%, negative = inhibition) at 10uM": 12.6}
{"smiles": "CC1=Nc2ccccc2N=C(NC(=O)/C=C/C(=O)O)C1c1ccccc1", "note": "(stereo not drawn)", "hERG current change (%, negative = inhibition) at 10uM": 2.53}
{"smiles": "COc1ccc(N(CC(=O)NCc2ccncc2)S(=O)(=O)c2ccc(C)c([N+](=O)[O-])c2)cc1", "hERG current change (%, negative = inhibition) at 10uM": -50.9}
{"smiles": "CCC1=NN(C(=O)COc2ccccc2)C(O)(c2ccncc2)C1", "note": "(stereo not drawn)", "hERG current change (%, negative = inhibition) at 10uM": 19.5}
{"smiles": "Cc1nc2ccccc2c(=O)n1NC(=O)C1CC1C", "note": "(stereo not drawn)", "hERG current change (%, negative = inhibition) at 10uM": 6.2}
{"smiles": "O=C(C1COc2ccccc2O1)N1CCn2c(nc3ccccc32)C1", "note": "(stereo not drawn)", "hERG current change (%, negative = inhibition) at 10uM": -29.6}
{"smiles": "CCc1nc(N2CCN(C(=O)CCl)CC2)c2c3c(sc2n1)CC(C)CC3", "note": "(stereo not drawn)", "hERG current change (%, negative = inhibition) at 10uM": -21.2}
{"smiles": "CC(C)n1cnc2c(NCc3ccc(S(N)(=O)=O)cc3)nc(NCc3ccc(S(N)(=O)=O)cc3)nc21", "hERG current change (%, negative = inhibition) at 10uM": 10.2}
{"smiles": "CCOC(=O)C1=C(CN2CCN(C(=O)c3ccco3)CC2)NC(=O)NC1c1ccccc1", "note": "(stereo not drawn)", "hERG current change (%, negative = inhibition) at 10uM": -43.7}
{"smiles": "COc1ccc(S(=O)(=O)NCCN2CCNC2=O)cc1OC", "hERG current change (%, negative = inhibition) at 10uM": 9.1}
{"smiles": "CC(=O)N1c2ccc(S(=O)(=O)NCC3CCC(C(=O)N4CCC(C)CC4)CC3)cc2CC1C", "note": "(stereo not drawn)", "hERG current change (%, negative = inhibition) at 10uM": 11.3}
{"smiles": "O=[N+]([O-])c1ccc(Cc2nnc(-c3ccccc3Cl)o2)cc1", "hERG current change (%, negative = inhibition) at 10uM": -15.5}
{"smiles": "O=C(NC(Cc1ccccc1)C(=O)O)/C(=C\\c1ccc(F)cc1)NC(=O)c1ccco1", "note": "(stereo not drawn)", "hERG current change (%, negative = inhibition) at 10uM": 13.9}
{"smiles": "O=C(NCC1CCCN1S(=O)(=O)c1cccs1)C(=O)Nc1ccc(F)cc1F", "note": "(stereo not drawn)", "hERG current change (%, negative = inhibition) at 10uM": -22.4}
{"smiles": "CCCNC(=O)COc1ccc(S(=O)(=O)Nc2ccc(C)cc2)cc1", "hERG current change (%, negative = inhibition) at 10uM": -20.2}
{"smiles": "O=C1C2CCCN2C(=S)N1c1ccccc1", "note": "(stereo not drawn)", "hERG current change (%, negative = inhibition) at 10uM": 2.74}
